Source: publication PMC6919601, “Identification of Plasmodium dipeptidyl aminopeptidase allosteric inhibitors by high throughput screening” (PLoS ONE, 2019)
About 230 (0.21%) of roughly 110,000 compounds showed an effect of 50% or more. This is one part of the list.

target: DPAP1 (Plasmodium falciparum, UniProt Q8IIJ9); assay: primary screen, percent inhibition; read by cleavage of a fluorogenic dipeptide substrate; higher = more effect of the substance; design: species or system P. falciparum D10 trophozoite lysates; single well
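Also: 30 min substrate incubation versus DMSO and 10 µM JCP410 controls.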

Chain of DPAP1 (Q8IIJ9 whole entry, looked up): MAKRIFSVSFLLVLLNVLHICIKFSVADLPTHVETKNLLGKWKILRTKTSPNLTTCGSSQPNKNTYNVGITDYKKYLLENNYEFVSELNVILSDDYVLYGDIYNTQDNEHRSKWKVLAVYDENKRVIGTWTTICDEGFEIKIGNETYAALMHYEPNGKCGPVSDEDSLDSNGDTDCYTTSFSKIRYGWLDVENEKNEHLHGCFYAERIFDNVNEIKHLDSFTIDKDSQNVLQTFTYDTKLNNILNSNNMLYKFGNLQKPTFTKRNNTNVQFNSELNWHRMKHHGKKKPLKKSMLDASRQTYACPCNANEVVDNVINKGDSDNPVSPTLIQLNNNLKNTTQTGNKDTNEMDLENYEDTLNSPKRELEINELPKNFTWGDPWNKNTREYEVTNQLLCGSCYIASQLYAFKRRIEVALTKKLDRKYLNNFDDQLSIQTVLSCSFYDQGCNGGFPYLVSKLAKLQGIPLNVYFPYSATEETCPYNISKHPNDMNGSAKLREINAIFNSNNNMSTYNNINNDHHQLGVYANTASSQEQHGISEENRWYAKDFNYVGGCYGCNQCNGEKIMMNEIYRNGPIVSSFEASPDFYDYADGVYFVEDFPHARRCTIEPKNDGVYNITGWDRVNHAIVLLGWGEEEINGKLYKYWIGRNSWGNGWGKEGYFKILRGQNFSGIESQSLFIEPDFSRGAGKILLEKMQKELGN

Compound	% Inhibition @ 10 uM
COc1ccc(NC(=O)c2ccccc2N(C)S(=O)(=O)c2ccccc2)cc1	-1.6%
Cc1oc(C)c(-c2c(C)oc(C)c2C(=O)O)c1C(=O)O	-7.27%
CCN(CC)CC(=O)c1c[nH]c2ccccc12	4.55%
C=CCn1c(SCc2nc3ccccc3[nH]2)nnc1-c1ccccc1	2.94%
CC(=O)Nc1ccc(C(=O)Nc2ccc(OCC(=O)O)cc2)cc1	5.63%
CC(C)C[C@H](NC(=O)C1CCC(C(C)(C)C)CC1)C(=O)NCC#N (stereo partly drawn)	0.174%
CC1=C(C(=O)OC2CCCC2)C(c2ccccc2F)NC(=O)N1 (stereo not drawn)	0.162%
CCN(Cc1ccccc1)C(=O)c1ccc(CS(=O)c2ccc(OC)cc2)o1 (stereo not drawn)	-3.32%
Cc1nn(C(C)C(=O)N2CCN(Cc3ccccc3)CC2)c(=O)c2c1sc1ccccc12 (stereo not drawn)	-0.856%
Cc1ccc(/C=c2\sc3nnc(-c4ccc(Cl)cc4)n3c2=O)o1	-3.64%
CCCC1=C(C(=O)OCC)C(c2ccc(F)c(Br)c2)C(C#N)=C(N)O1 (stereo not drawn)	-5.65%
CC1=NNC(=O)CC1	-3.67%
Cc1sc2nc(-c3ccc(C(C)(C)C)cc3)oc(=O)c2c1C	-10.1%
CCCc1nc2nc(C)c(NS(=O)(=O)Cc3ccccc3)c(O)n2n1	4.47%
N#C/C(=C\c1ccc(O)cc1)c1nc(C2CC2)cs1	-4.08%
Cc1ccccc1Cn1c(CN2CCCCC2C)nc2c1c(=O)n(C)c(=O)n2C (stereo not drawn)	1.23%
O=C(O)CCCC(=O)Nc1cccc(Oc2ccc3c(c2)C(=O)N(c2ccccc2)C3=O)c1	3.89%
CCCc1nc2oc3c(-c4ccccc4)c(C(=O)O)c(C)nc3c2c2c1COC(C)(C)C2	0.685%
CN(C)c1ccc(-c2nc3cc(N)ccc3o2)cc1	4.36%
Cc1ccc(NS(=O)(=O)c2ccc(NC(=O)CN3C(=O)c4cccc5cccc3c45)cc2)cc1	3.84%
COc1cc(NC(=O)C(C)Oc2ccccc2)cc(OC)c1 (stereo not drawn)	-2.8%
CC(=O)CSc1nc2ccccc2o1	5.29%
COc1cccc(/C=C2/SC(=N)N(c3nonc3N)C2=O)c1	1.13%
Cc1cc(OCc2noc(-c3cccnc3)n2)ccc1Cl	2.41%
CNC(=O)/C(=C\c1ccccc1)NC(=O)c1ccc(Br)cc1	-4.48%

Compound	% Inhibition @ 10 uM
CCOC(=O)C1=C(C)OC(N)=C(C#N)C1c1ccc(OC)c(C)c1 (stereo not drawn)	-3.13%
COc1ccccc1CNC(=O)Cc1c(C)c2cc3c(C)coc3cc2oc1=O	2.54%
CC(C)C[C@H](NC(=O)c1cccc(-c2ncc[nH]2)c1)C(=O)NCC#N	-5.64%
Cc1ccc2nc(NC(=O)CC(C)C)sc2c1	-5.13%
Cc1sc2ncnc(N3CCCCCC3)c2c1C	-4.21%
CC(NC(=O)/C(=C\c1ccc2c(c1)OCO2)NC(=O)c1ccccc1)C(=O)O (stereo not drawn)	2.38%
O=C(O)c1ccc(CSc2cc(Cl)ccc2Cl)cc1	10.6%
CCOc1ccc(NC(=O)CN(c2cccc(OC)c2)S(C)(=O)=O)cc1	0.324%
OC1CCCN(Cc2ccc(F)cc2F)C1 (stereo not drawn)	-0.828%
COCCN1C(=O)c2ccccc2C(C(=O)NCCN(C)C)C1c1cccs1 (stereo not drawn)	-6.05%
CC(NC(=O)c1ccc(Cl)cc1Cl)C1COc2ccccc2O1 (stereo not drawn)	0.131%
N#CC1=C(N)Oc2[nH]nc(-c3cccnc3)c2C1c1cc2c(cc1Cl)OCO2 (stereo not drawn)	-2.78%
O=S1(=O)CC=C(CSc2nc3ccccc3[nH]2)C1	-2.62%
CCCc1c(C)nc2c(C(=O)NCc3ccccc3Cl)cnn2c1O	-0.406%
COCCO/C(O)=C1/C(C)=NC2=C(C(=O)CC(c3ccc(OC)cc3)C2)C1c1ccc(C)cc1 (stereo not drawn)	-0.053%
CCSc1ncc(Cl)c(C(=O)Nc2sc3c(c2C(=O)OC)CCC3)n1	-6.74%
CCN(CC)CCCOc1ccc(C)c(C)c1	-6.44%
COc1ccccc1-n1c(C)cc(/C=C2\C(=N)N3N=C(N4CCCC4)SC3=NC2=O)c1C	6.38%
CCOc1cc(S(=O)(=O)Nc2ccc(Cl)cn2)ccc1Cl	-1.17%
Cc1cc(C)cc(C(=O)Nc2cnn(Cc3ccccc3)c2)c1	-8.86%
O=S(=O)(c1ccc(-c2ccc(O)nn2)s1)N1CCC(CN2CCc3ccccc3C2)CC1	-0.303%
Cc1ccc(CCNC(=O)C2CCN(S(C)(=O)=O)CC2)cc1	2.05%
CCC1CCCCN1C(=O)C1=CC(c2ccc(C)cc2)=NS(=O)(=O)N1C (stereo not drawn)	-1.06%
COc1ccc(C2CC(c3ccc(Cl)cc3Cl)=NN2C(C)=O)cc1 (stereo not drawn)	0.235%
COC(=O)C1=C(C)N(CC(C)C)C(=O)/C1=C\c1cc(OC)c(OC)c(OC)c1	-0.436%

Compound	% Inhibition @ 10 uM
COC(=O)c1cc(S(=O)(=O)N(C)Cc2ccccc2)cn1C	-2.84%
CCN1CCN(C(=O)c2cnn(-c3ccc(C)cc3C)c2C2CCN(C(=O)OC(C)(C)C)CC2)CC1	1.92%
CC1CCN(c2ncnc3c2nc2n3CCCCC2)CC1	7.22%
COCc1cc(C)nc(SCC(=O)Nc2ccc(Br)cc2C)c1C#N	-1.84%
OC(COc1ccccc1)CN1CCN(c2ccccc2)CC1 (stereo not drawn)	0.389%
Cc1nn(C)c(C)c1S(=O)(=O)N1CCC(C(=O)NC2CCCCCC2)CC1	0.708%
CC(CCc1ccccc1)/N=C/c1c(O)[nH]c2ccccc12 (stereo not drawn)	1.52%
COc1ccc(OC)c2sc(N(CCN(C)C)C(=O)c3cccs3)nc12	4.67%
C=CCN1C(=O)NC(=O)C(Cc2ccc(OC)c(OC)c2)C1=O (stereo not drawn)	-6.02%
CC(CNC(=O)CCc1nnc2n(Cc3ccccc3)c(=O)c3ccccc3n12)c1ccccc1 (stereo not drawn)	-4.21%
Cc1cccc(C(=O)Nc2sc3c(c2C(=O)N2CCOCC2)CCCC3)c1	-2.03%
CC[C@H](NC(=O)[C@H](Cc1c(F)cccc1F)NC(=O)c1ccc(-c2ccccc2Cl)nc1)C(O)c1nc2ccccc2o1 (stereo partly drawn)	-7.2%
CSc1sc(SC)c(CO)c1CO	-0.0372%
CC(C)(C)NC(=O)/C(=C/c1ccc(Br)cc1)NC(=O)c1ccccc1	-4.76%
COc1ccc(-c2csc(NC(=O)/C=C/C(=O)O)n2)cc1	-1.1%
CCCCNc1nc2c(c(=O)n(C)c(=O)n2C)n1Cc1ccc(Cl)cc1Cl	-3.98%
O=C(c1ccc(CN2CC(=O)N3CCCCC3C2=O)cc1)N1CCCCCC1 (stereo not drawn)	-3.6%
CCCOc1ccc(C2c3c(oc4ccccc4c3=O)C(=O)N2c2nnc(C)s2)cc1 (stereo not drawn)	2.16%
COc1ccc(CCN(C)CCC(=O)Nc2c(C)cc(C)cc2C)cc1OC	10.7%
Cc1ccccc1OCC(=O)Nc1ccc(F)cc1F	1.04%
CCOC(=O)C1=C(N)Oc2cc(C)n(Cc3cccnc3)c(=O)c2C1c1cccnc1 (stereo not drawn)	3.93%
OC1CCN(Cc2ccc3ccccc3c2)CC1	3.16%
C=CCN1C(=O)C(CC(=O)Nc2cccc(C(C)=O)c2)S/C1=N\c1ccc(C)c(C)c1 (stereo not drawn)	7.78%
COc1ccc(C2CC(=O)C(/C=N/C3CCCCC3)=C(O)C2)cc1 (stereo not drawn)	8.6%
O=C(O)c1ccc(SCc2ccccc2)nc1	4.28%

Compound	% Inhibition @ 10 uM
O=C1c2ccccc2C(=O)N1C/C=C/CS(=O)(=O)c1ccccc1	2.65%
COc1cccc(N2CCN(C3CC(=O)N(c4cc(OC)ccc4C)C3=O)CC2)c1 (stereo not drawn)	-6.05%
COc1ccc(-c2cc(-c3ccccc3)nc(N3CCCCC3)n2)cc1OC	0.827%
CCOc1ccc(C2C(C(=O)OC)=CN(Cc3ccc(Cl)cc3)C=C2C(=O)OC)cc1	0.219%
Cc1n[nH]c(C)c1CCCCOc1ccccc1	-1.41%
CSc1ccc(-c2oc(C)c(C)[n+]2[O-])cc1	-1.99%
CC(C)C(=O)Nc1ccc(N2CCN(S(C)(=O)=O)CC2)cc1	-0.519%
O=C(CC12CC3CC(CC(C3)C1)C2)Nc1noc2ccccc12	3.77%
Oc1c(Br)cc(Br)cc1CN1CCN(c2cccc(C(F)(F)F)c2)CC1	-5.42%
Nc1ccc(Cl)cc1-n1nc(-c2ccc(F)cc2)c2ccccc2c1=O	5.16%
O=C(NCc1cccnc1)c1cc2nc(-c3cccs3)cc(C(F)(F)F)n2n1	-5.49%
CC(C)c1cc(=O)oc2c3c4c(cc12)CCCN4CCC3	33%
COC(=O)c1ccc(OCC2c3cc(OC)c(OC)cc3CCN2C(=O)c2ccc(C)cc2)cc1 (stereo not drawn)	1.76%
CCn1c(-c2ccc(OC)cc2)cs/c1=N\c1ccccc1	-0.132%
COc1ccccc1C(=O)Sc1ccc(Cl)cc1	0.163%
Cc1cc(C)n(-c2ccc3nnc(O)n3n2)n1	-0.828%
Cc1cc(C)c2nc(N(CCN(C)C)C(=O)c3ccco3)sc2c1	3.43%
CCN(CC)S(=O)(=O)c1ccc(NC(=O)C2CCCCC2)cc1	-5.3%
Cc1nn(CC(=O)NCCc2c[nH]c3ccccc23)c(=O)c2cc3sccc3n12	1.8%
Cc1cccc(CCNCc2c(C(=O)O)c(C)n(Cc3ccccc3F)c2C)c1	-7.36%
O=C(Cn1cc2c(n1)CCCC2)NCCc1ccc(Cl)cc1	3.4%
O=C(COc1cccc(N2C(=O)C3C4C=CC(C5CC45)C3C2=O)c1)c1ccc(F)cc1 (stereo not drawn)	-0.992%
COc1cc(NCc2ccc(C(F)(F)F)cc2)cc(OC)c1	3.19%
CCCc1nn2c(=O)cc(COc3ccc(/C=C(\C#N)C(=O)NCc4ccco4)cc3)nc2s1	1.15%
